From PubChem BioAssay AID1634 (National Center for Advancing Translational Sciences (NCATS), 2009)
About 150 (0.058%) of roughly 260,000 compounds were called active. The inconclusive results got no clear call from the source; some entries with a clear call stand among them for comparison. The call rests on the fitted dose curve; in most records, active means well fitted inhibition curve with a large enough effect; inconclusive means small, poorly fitted or top-dose-only effect; inactive means no such curve, though single readings can be large or run the other way. No potency is given beside an inconclusive call; the fits are too rough.

Biological target: Pyruvate kinase PKM (Homo sapiens) (UniProt P14618)
Sequence of UniProt P14618 (P14618 whole entry, looked up, canonical isoform): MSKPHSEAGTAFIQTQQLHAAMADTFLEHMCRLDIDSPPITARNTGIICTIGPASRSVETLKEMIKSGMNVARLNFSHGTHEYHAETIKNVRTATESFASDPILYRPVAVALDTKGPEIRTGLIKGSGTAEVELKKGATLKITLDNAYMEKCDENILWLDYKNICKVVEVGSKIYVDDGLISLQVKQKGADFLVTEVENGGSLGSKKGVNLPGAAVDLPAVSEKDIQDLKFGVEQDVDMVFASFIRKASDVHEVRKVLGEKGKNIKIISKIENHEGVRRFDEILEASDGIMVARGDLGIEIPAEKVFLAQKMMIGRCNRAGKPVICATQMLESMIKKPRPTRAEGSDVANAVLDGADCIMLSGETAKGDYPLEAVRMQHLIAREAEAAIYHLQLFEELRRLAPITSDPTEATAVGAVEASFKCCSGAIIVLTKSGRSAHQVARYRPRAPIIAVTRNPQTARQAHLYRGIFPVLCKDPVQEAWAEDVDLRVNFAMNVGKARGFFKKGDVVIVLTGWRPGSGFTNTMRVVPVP
Experiment: qHTS Assay for Inhibitors of Human Muscle isoform 2 Pyruvate Kinase; further: nearly all actives have a fitted effect of over 60% in size
Conditions: purified PKM2, ATP generation, Kinase-Glo luminescence; series mostly up to 57.5 µM
Description: NIH Chemical Genomics Center [NCGC] Matthew G. Vander Heiden, M.D., Ph.D. [Harvard Medical School, 77 Avenue Louis Pasteur, Boston, MA 02115] […] ATP generation was detected in a coupled reaction by luciferase-mediated luminescence, an ATP-dependent process. […] The enzyme was assayed at an intermediate level of activity to screen for both inhibitors and activators.
NCGC Assay Protocol Summary: Three uL of substrate mix (at r.t.) in assay buffer (50 mM Imidazole pH7.2, 50 mM KCl, 7 mM MgCl2, 0.01% Tween 20, 0.05% BSA) was dispensed into white solid bottom 1,536 well microtiter plates so that the final concentrations of substrates in the assay were 0.1 mM ADP and 0.5 mM PEP. 23 nL of compound were delivered by a pin tool and 1 uL of enzyme mix in assay buffer (4 degree Celsius) was added. Plates were incubated at room temperature for 1 hour. Two uL of detection mix (Kinase-Glo, Promega; at 4 degree Celsius protected from light) was added and luminescence read by a ViewLux (Perkin Elmer) at 5 second exposure/plate. Data were normalized to the uninhibited and AC100 inhibition (no enzyme). To monitor activation, the first column contained a titration of the activator, NCGC00031955-01 (16-point 1:2 dilutions in duplicate starting at 57 uM) and the first 16 rows of column 4 contained 57 uM of NCGC00031955-01.
Potency means the concentration at half of the fitted maximal effect; tags describe the fitted curve by direction and shape.

| SMILES | Potency |
| --- | --- |
| O=C(Nc1ccccc1)C1=C(c2ccccc2)S(=O)(=O)CCS1(=O)=O | inconclusive [falling, single point] |
| O=C(CCCCCNc1nc(=S)[nH]c2ccccc12)NCCc1ccc(Cl)cc1 | inconclusive [falling, single point] |
| NC(=O)c1ccccc1N/C=C/C(=O)c1ccc(Cl)cc1Cl | inconclusive [falling, partial curve] |
| c1ccc(C2=NNC(=NC3CC3)SC2)cc1 | active: 14.1 µM |
| CCCc1nc2sc3ccccc3c(=O)c2c(=O)n1Cc1ccco1 | inactive |
| CC(C)CN(C(=O)CSc1nnnn1-c1ccccc1)c1c(N)n(CC(C)C)c(=O)[nH]c1=O | inactive |
| O=c1c2ccccc2sn1-c1cc(S(=O)(=O)N2CCOCC2)ccc1N1CCOCC1 | inconclusive [falling, partial curve] |
| COc1cccc(NC(=O)CN(C)C(C)C(=O)Nc2ccc(S(=O)(=O)N3CCCC3)cc2)c1 (configuration not stated) | inactive |
| CCOC(=O)C1CCCN(C(=O)c2cccc(S(=O)(=O)N3CCOCC3)c2)C1 (configuration not stated) | inconclusive [falling, single point] |
| O=C(COc1ccc(/C=N/NS(=O)(=O)c2ccccc2)cc1)NCc1ccccc1 | inactive |
| O=C1CCC(=O)N1c1cccc(-c2nc3ccccc3o2)c1 | inactive |
| O=C(NCCc1ccccc1)C1CCN(C(=O)c2ccc([N+](=O)[O-])cc2)CC1 | inconclusive [falling, single point] |
| COc1cc(/C=C(\C#N)C(N)=O)ccc1OS(=O)(=O)c1ccc(C)cc1 | inactive |
| O=[N+]([O-])c1ccc(N2CCOCC2)cc1O | inconclusive [falling, single point] |
| Cc1[nH]c2ccccc2c1C(=O)/C=C\c1ccccc1Cl | inactive |
| Cn1cccc1/C=N/NC(=O)c1ccccn1 | inconclusive [falling, partial curve] |
| COc1cccc(NC(=O)c2ocnc2C)c1 | inconclusive [falling, single point] |
| O=C(Nc1ccc2c(c1)OCO2)C1CCN(C(=O)c2ccc(Br)cc2)CC1 | inconclusive [falling, full curve, poor fit] |
| Cc1ccc(NC(=O)CSCC(=O)Nc2ncc3c(n2)CC(c2ccco2)CC3=O)cc1 (configuration not stated) | inactive |
| CC(=O)c1cc(C#N)c(NCCCN(C)C)nc1C | inconclusive [falling, single point] |
| Cn1c(Cl)cnc1C1CC(=O)c2cc(Cl)ccc2O1 (configuration not stated) | inactive |
| COc1cccc(-n2c([S-])c(C(=O)Nc3ccc(S(=O)(=O)N4CCOCC4)cc3)[n+]3cc(C(N)=O)ccc23)c1 | inconclusive [falling, single point] |
| CCc1cccc(OC2OC(CO)C(O)C(O)C2NC(C)=O)c1 (configuration not stated) | inconclusive [falling, single point] |
| COC(=O)C(Cc1ccccc1)NC(=O)c1cc(=O)[nH]c2ccccc12 (configuration not stated) | inconclusive [falling, single point] |
| COc1ccc(C(=O)O)cc1S(N)(=O)=O | inconclusive [falling, single point] |
| O=C(COc1ccc2c(c1)OCO2)Nc1ccccc1F | inconclusive [falling, partial curve] |

| SMILES | Potency |
| --- | --- |
| Fc1ccccc1/C=C/c1ccc2ccccc2n1 | inconclusive [falling, partial curve] |
| O=C(Nc1ccccc1)N1CCc2ccccc21 | inconclusive [falling, partial curve, poor fit] |
| COc1ccc(C(=O)O/N=C(\N)Cc2ccc(Cl)cc2)cc1OC | inactive |
| CC(=O)c1ccc(NC(=S)Nc2ccc(Br)c(Cl)c2)cc1 | inconclusive [falling, single point] |
| CCN(CC)S(=O)(=O)c1ccc2c(c1)nc(CCC(=O)O)n2C | inconclusive [falling, single point] |
| CCn1c(=O)c2cc(C(=O)N3CCN(C(=O)c4ccco4)CC3)sc2c2ccccc21 | inactive |
| CCOCc1cnc(C)nc1NCC(=O)c1c(C)[nH]c2ccccc12 | inconclusive [falling, full curve, poor fit] |
| Clc1ccc(CSc2nc3ccncc3[nH]2)cc1 | inconclusive [falling, single point] |
| Cn1c(=O)c(C(=O)COC(=O)c2cc(-c3ccco3)nc3ccccc23)c(N)n(CC2CC2)c1=O | inactive |
| CCOc1ccc2nc(NC(=O)NC3CCCCC3)sc2c1 | inconclusive [falling, single point] |
| Cc1ccc(C(=O)Nc2ccc(F)cc2F)o1 | inconclusive [falling, single point] |
| CCn1c(=O)c2c(nc(SCc3ccccn3)n2C)n(C)c1=O | inactive |
| NC(Cc1ccc(O)c([N+](=O)[O-])c1)C(=O)O (configuration not stated) | inconclusive [falling, single point] |
| Cc1ccc(C(=O)Nc2ccc(O)c(C(=O)O)c2)o1 | inconclusive [falling, single point] |
| O=C(NCc1cccs1)C1CCN(S(=O)(=O)c2ccccc2F)CC1 | inactive |
| Nc1c(C(=O)N2CCOCC2)sc2nc3c(cc12)CCCC3 | inconclusive [falling, partial curve] |
| COC(=O)[C@@]1(Cc2ccc(F)cc2)[C@H]2c3cc(C(=O)N(C)C)n(CCc4ccc(O)c(O)c4)c3C[C@H]2CN1C(=O)c1ccccc1 | inactive |
| CN1CCC(N(C)CC(=O)Nc2cccc(Oc3ccccc3)c2)CC1 | inactive |
| O=C(Nc1ccc2c(c1)OCCO2)c1ccccn1 | active: 14.1 µM |
| COc1cc(/C=C2\COC/C(=C\c3cc(OC)c(OC)c(OC)c3)C2=O)cc(OC)c1OC | inactive |
| Cc1ccc(NN=Nc2nc3c([nH]2)c(=O)n(C)c(=O)n3C)cc1 | inactive |
| COc1cc(OC)cc(C(=O)Nc2ccc(NC(=O)c3ccco3)c(C)c2)c1 | inconclusive [falling, single point] |
| CC(=O)Oc1cccc2c1C(=O)c1c(OC(C)=O)cc(C(=O)O)cc1C2=O | inconclusive [falling, single point] |
| CC(=O)C1=C(c2cccc([N+](=O)[O-])c2)N(C(C)=O)n2c(C)nnc2S1 | inactive |
| Cc1cc(NS(=O)(=O)c2ccc(NC(=O)c3cccc(OC(F)F)c3)cc2)nc(C)n1 | inconclusive [falling, single point] |
| CC(=O)c1sc(NC(=O)c2ccccc2F)nc1C | inconclusive [falling, partial curve] |

| SMILES | Potency |
| --- | --- |
| C=Cc1ccc2c(c1)N(C)C(=C)S2 | inactive |
| Cn1c(-c2ccc(Br)o2)nc2ccccc21 | inconclusive [falling, partial curve] |
| O=C(Nc1ncccc1O)c1ccc(OCC2CCCO2)cc1 (configuration not stated) | inconclusive [falling, partial curve] |
| O=C(Nc1nnc(SCc2ccc(F)cc2)s1)C1CC(=O)N(Cc2ccccc2)C1 (configuration not stated) | inactive |
| Cc1ccc(O)c(CNc2ccc(S(=O)(=O)Nc3nccs3)cc2)c1 | inactive |
| Cc1cc2ncc(-c3ncc(C(F)(F)F)cc3Cl)cn2n1 | inconclusive [falling, single point] |
| COc1ccccc1N1CCN(C(=O)CSc2nc(C)c(Cc3ccccc3)c(=O)[nH]2)CC1 | inactive |
| COc1ccc(-c2nc3oc4cc(OC)ccc4c(=O)c3c(=O)n2Cc2ccco2)cc1 | inactive |
| Cc1ccsc1C(=O)N/N=C/c1ccc2c(c1)OCO2 | active: 12.6 µM |
| CCOc1ccc(CNc2cccc(SC)c2)cc1 | inactive |
| Cn1c(-c2ccc(F)cc2)cnc1SCC(=O)NCc1ccco1 | inactive |
| COC(=O)c1ccc(NC(=O)c2cc[n+](Cc3ccccc3)cc2)cc1 | inactive |
| COc1ccc(C(C(=O)NCC2CCCO2)N(C(=O)CNC(=O)c2cccs2)c2ccccc2)cc1OC (configuration not stated) | inconclusive [falling, single point] |
| CC1=NNC(=O)C1CC(=O)N/N=C(\C)c1ccco1 (configuration not stated) | inconclusive [falling, single point] |
| COc1cccc(NC(=O)c2ccc3c(c2)OCCO3)c1 | inconclusive [falling, partial curve] |
| COc1cc(/C=C/[N+](=O)[O-])ccc1OCc1cccc(C(=O)O)c1 | inactive |
| Cc1ccc(C(=O)Nc2ccc(N3CCOCC3)cc2)cc1 | inconclusive [falling, single point] |
| CCOC(=O)C1=C(c2ccccc2)NC(=O)NC1c1cc(Br)c(O)c(OC)c1 (configuration not stated) | inconclusive [falling, single point] |
| O=C(/C=C\Nc1ccccn1)c1ccccc1 | inconclusive [falling, partial curve] |
| N#CC(C#N)=c1ccc2c(c1)NC1(CCCCC1)N=2 | inconclusive [falling, single point] |
| CN(C(=O)c1cc2ccccc2oc1=O)C1(C)CCS(=O)(=O)C1 (configuration not stated) | inconclusive [falling, single point] |
| O=C(/C=C/c1ccc2c(c1)OCO2)Nc1cccnc1 | inconclusive [falling, single point] |
| O=S(=O)(c1ccc(F)cc1)N1CCN(CC2CC3C=CC2C3)CC1 (configuration not stated) | inactive |
| Cn1c(C(=O)NCc2ccc3c(c2)OCO3)cc2sccc21 | inactive |
| O=C(Cc1cccs1)Nc1nnc(SCc2ccc(F)cc2)s1 | inactive |
